Test results taken from paper PMC6919601, “Identification of Plasmodium dipeptidyl aminopeptidase allosteric inhibitors by high throughput screening” (PLoS ONE, 2019).
In all, about 110,000 compounds went through this assay and about 230 (0.21%) showed an effect of 50% or more. The list shows a part of the results.

Target: DPAP1 (Plasmodium falciparum, UniProt Q8IIJ9)
Experiment: primary screen, percent inhibition; read by cleavage of a fluorogenic dipeptide substrate; higher = more effect of the substance
Set-up: species or system P. falciparum D10 trophozoite lysates; single well
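Further: 30 min substrate incubation versus DMSO and 10 µM JCP410 controls.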

Chain of DPAP1 (Q8IIJ9 whole entry, looked up): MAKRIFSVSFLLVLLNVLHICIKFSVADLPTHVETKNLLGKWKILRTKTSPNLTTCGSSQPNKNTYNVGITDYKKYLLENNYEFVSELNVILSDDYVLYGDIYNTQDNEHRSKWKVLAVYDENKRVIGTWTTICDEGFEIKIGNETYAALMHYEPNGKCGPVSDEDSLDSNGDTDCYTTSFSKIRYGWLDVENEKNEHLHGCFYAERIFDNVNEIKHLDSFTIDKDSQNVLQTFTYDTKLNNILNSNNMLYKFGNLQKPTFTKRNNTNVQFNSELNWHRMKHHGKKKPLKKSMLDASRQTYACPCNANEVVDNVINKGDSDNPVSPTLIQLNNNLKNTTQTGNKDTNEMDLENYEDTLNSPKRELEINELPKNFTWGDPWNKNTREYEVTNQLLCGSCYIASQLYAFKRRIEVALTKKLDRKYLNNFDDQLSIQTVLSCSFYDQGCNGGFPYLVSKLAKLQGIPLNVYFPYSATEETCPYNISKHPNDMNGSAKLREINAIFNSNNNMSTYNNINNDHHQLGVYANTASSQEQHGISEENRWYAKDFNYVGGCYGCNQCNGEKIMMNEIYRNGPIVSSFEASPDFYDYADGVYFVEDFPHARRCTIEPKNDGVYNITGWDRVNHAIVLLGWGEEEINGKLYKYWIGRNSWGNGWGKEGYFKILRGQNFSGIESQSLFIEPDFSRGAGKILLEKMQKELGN

Structure (SMILES)	% Inhibition @ 10 uM [%]
C=CCn1c(SCCOc2ccccc2)nc2sc(C)c(C)c2c1=O	-6.69
C=CCNc1nc(Cl)nc(NCCO)n1	-0.807
CCc1nc2ccc(C(=O)NC3CCN(Cc4ccccc4)CC3)cc2nc1CC	2.61
Cc1oc2cc3oc(=O)c(CCC(=O)NCc4ccc5c(c4)OCO5)c(C)c3cc2c1C	-6.29
NC(=S)N/N=C\c1ccc2c(c1)OCO2	-0.836
Cc1ccnc(NCc2ccc(O)c3ncccc23)c1	0.726
CC1CN(CN2C(=O)c3ccccc3C2=O)CC(C)O1 (stereo not shown)	-9.05
CCOC(=O)CSc1cn2c(n1)CCC2	-3.13
CN(C)C(=O)CCc1nc(-c2ccc(Cl)cc2)no1	5.17
Cc1ccc(CN2CCc3ccccc3C2)o1	1.62
CCOc1ccc(C2/C(=C(\O)OC3CC(C)CCC3C(C)C)C(C)=Nc3ncnn32)cc1OC (stereo not shown)	1.02
N=C(N)N(c1ccccc1)c1ccccc1	-10.4
CCOCCOC(=O)C1=C(C)NC(=O)NC1c1ccc(O)cc1 (stereo not shown)	2.7
CC(C)P(=S)(c1c(F)c(F)nc(F)c1F)C(C)C	3.98
Cc1cccc(NC(=O)c2sc3nc(-c4cccs4)ccc3c2N)c1	2.69
Cn1cc(C=O)c2cc(S(=O)(=O)N3CCCCC3)ccc21	-2.54
CC(CNC(=O)c1cc(S(=O)(=O)N2CCOCC2)cn1C)c1ccccc1 (stereo not shown)	5.86
Cc1cc(=O)oc(C)c1C(=O)OCC(=O)c1ccc(Cl)c(Cl)c1	-2.41
CC(=O)NC(=O)/C(C#N)=C/Nc1ccccc1C	7.12
NC(=O)CCS(=O)(=O)CCN1CCOCC1	4.65
CC(=O)c1ccc(NS(=O)(=O)c2ccc3ccccc3c2)cc1	-1.46
CC(C)Cc1csc2ncnc(N3CCCCC3)c12	-2.6
Cc1ccc(CNCCCSc2nnnn2-c2ccccc2)cc1	-1.11

Structure (SMILES)	% Inhibition @ 10 uM [%]
CCOc1ccc(OCC(=O)Nc2cc(Cl)ccc2OC)cc1	-4.02
CCn1c(S)nnc1-c1csc2c1CCC(C)C2 (stereo not shown)	-2.9
COCCCNC(=O)CN(c1ccc(Cl)cc1)S(C)(=O)=O	-5.4
Cc1c(C(=O)N2CCOCC2)oc2ccc3c(c12)C(O)CC(C)(C)O3 (stereo not shown)	1.65
CC1CCCCN1CCC(=O)O (stereo not shown)	-3.64
Cc1cccc(NC(=O)CSc2nc(N)cc(N)n2)c1	-3.37
Cc1ccc(Cc2c(C)nc3c(C(=O)NCc4cccnc4)cnn3c2C)cc1	-2.14
Cc1ccccc1OCC(=O)Nc1cc(Cl)ccc1Cl	1.91
CC(C)C(NC(=O)C1CCCCC1)C(=O)NCCc1ccccc1 (stereo not shown)	-2.49
CCc1nn(C(C)C(=O)NCCCN(CC)CC)c(=O)c2cc3occc3n12 (stereo not shown)	1.38
CSc1nc(N)nc2sc3c(O)cc(O)nc3c12	-1.68
Cc1sc(NC(=O)c2ccc(F)cc2)nc1C12CC3CC(CC(C3)C1)C2	0.177
Cc1ccc(OCC(O)CN2CCN(c3ccccc3F)CC2)c(C)c1 (stereo not shown)	-10.7
CC(C)CC1=NN2C(=N)/C(=C/c3ccc4c(c3)OCO4)C(=O)N=C2S1	-3.06
Cc1nc(N2C(=O)C(O)=C(C(=O)c3cccs3)C2c2ccco2)sc1C (stereo not shown)	-0.512
O=c1[nH]c(=O)n(CCc2ccccc2)c2c1CN(C1CCCCC1)CN2	-4.78
Cc1nc(SCC(=O)c2ccc(F)cc2)c2c(C)c(C)sc2n1	0.161
Cc1ccccc1-c1nc(CS(=O)CC(=O)N2CCC3(CC2)OCCO3)c(C)o1 (stereo not shown)	-2.85
CCc1ccc(C2CC(=O)NC(SC)=C2C#N)cc1 (stereo not shown)	0.121
O=C(COc1ccccc1)n1nc(-c2ccccc2)nc1NCc1ccco1	3.93
Cc1ccc(S(=O)(=O)Nc2c(C)nc3nc(C)nn3c2O)cc1	-3.34
CCOC(=O)c1c(C)nc2c(C3CCCN3C)cccn12 (stereo not shown)	-4.35
O=c1c2ccccc2nc(CNCc2ccc(F)cc2)n1-c1ccc(F)cc1	-6.81

Structure (SMILES)	% Inhibition @ 10 uM [%]
O=C(NCCCCNC(=O)c1cccs1)c1cccs1	-0.28
Cc1ccc(C)c(C(=O)C2=C(O)C(=O)N(CCCn3ccnc3)C2c2ccccc2)c1 (stereo not shown)	0.83
Cc1onc(-c2ccccc2)c1C(=O)N(C)C	1.27
COc1cccc(N2C(=O)N(c3ccccc3Cl)C3CS(=O)(=O)CC32)c1 (stereo not shown)	2.01
CC(C)Oc1ccc(C(CC(=O)N2CCCCC2)c2ccccc2)cc1 (stereo not shown)	-1.18
CCc1ccc(Oc2nc3c(C)cccn3c(=O)c2/C=C(\C#N)C(=O)NC2CCS(=O)(=O)C2)cc1 (stereo not shown)	-3.23
N#Cc1c(NC(=O)Cn2c(=O)sc3ccccc32)sc2c1CCCC2	2.38
CCN1C(=O)C(=CNc2ccc(Cl)cc2Cl)C(=O)N(CC)C1=O	3.05
COc1cc2c(cc1OC)C(c1ccccc1C(F)(F)F)NCC2 (stereo not shown)	-0.0372
CCCCC(=O)Nc1c(O)oc2ccccc2c1=O	-2.23
COc1cccc(CNc2nc3ccccc3n2CCN2CCCCC2)c1OC	2.31
COC(=O)C1=C(C)NC(=O)/C1=C\c1ccc(O)c(OC)c1	-1.6
CCO/C(O)=C1/C(C)=Nc2nc(SCc3cccnc3)nn2C1c1ccc(OC)cc1 (stereo not shown)	2.97
COc1ccc(/C=C/C(=O)NCCSc2nc3ccccc3s2)cc1	-6.17
Cc1ccc(F)c(NC(=O)c2ccc(Cn3cc(Cl)cn3)cc2)c1	2.7
CC(C)Oc1ccc(/C=C2\SC(=O)N(CC(=O)N3CCOCC3)C2=O)cc1	-1.22
Cc1ccc(C(C)C)c(OCc2nnc3c4cnn(Cc5ccccc5)c4ncn23)c1	-0.386
CCc1nc2cccnc2n1-c1ccc(CC(=O)NCCN(C)C)cc1	-2.56
C=CCN1CN(CCc2ccccc2)CNC1=S	-3.74
COc1ccc(NC(=O)c2ccc([N+](=O)[O-])cc2C(=O)O)cc1	-4.96
COc1ccc(C(CC(=O)O)NC(=O)COc2cc(C)c(Cl)c(C)c2)cc1OC (stereo not shown)	2.7
